# Hit rate of the full screen: of about 310,000 compounds, about 2,200 (0.71%) showed an effect of 50% or more. Effects have a minus sign here. This is one part of the list.
# Target: human ether-à-go-go-related gene (hERG) potassium channel (human, UniProt Q12809)
# Assay: primary screen, population patch clamp on CHO cells stably expressing hERG
# Sequence of human ether-à-go-go-related gene (hERG) potassium channel (Q12809 whole entry, looked up): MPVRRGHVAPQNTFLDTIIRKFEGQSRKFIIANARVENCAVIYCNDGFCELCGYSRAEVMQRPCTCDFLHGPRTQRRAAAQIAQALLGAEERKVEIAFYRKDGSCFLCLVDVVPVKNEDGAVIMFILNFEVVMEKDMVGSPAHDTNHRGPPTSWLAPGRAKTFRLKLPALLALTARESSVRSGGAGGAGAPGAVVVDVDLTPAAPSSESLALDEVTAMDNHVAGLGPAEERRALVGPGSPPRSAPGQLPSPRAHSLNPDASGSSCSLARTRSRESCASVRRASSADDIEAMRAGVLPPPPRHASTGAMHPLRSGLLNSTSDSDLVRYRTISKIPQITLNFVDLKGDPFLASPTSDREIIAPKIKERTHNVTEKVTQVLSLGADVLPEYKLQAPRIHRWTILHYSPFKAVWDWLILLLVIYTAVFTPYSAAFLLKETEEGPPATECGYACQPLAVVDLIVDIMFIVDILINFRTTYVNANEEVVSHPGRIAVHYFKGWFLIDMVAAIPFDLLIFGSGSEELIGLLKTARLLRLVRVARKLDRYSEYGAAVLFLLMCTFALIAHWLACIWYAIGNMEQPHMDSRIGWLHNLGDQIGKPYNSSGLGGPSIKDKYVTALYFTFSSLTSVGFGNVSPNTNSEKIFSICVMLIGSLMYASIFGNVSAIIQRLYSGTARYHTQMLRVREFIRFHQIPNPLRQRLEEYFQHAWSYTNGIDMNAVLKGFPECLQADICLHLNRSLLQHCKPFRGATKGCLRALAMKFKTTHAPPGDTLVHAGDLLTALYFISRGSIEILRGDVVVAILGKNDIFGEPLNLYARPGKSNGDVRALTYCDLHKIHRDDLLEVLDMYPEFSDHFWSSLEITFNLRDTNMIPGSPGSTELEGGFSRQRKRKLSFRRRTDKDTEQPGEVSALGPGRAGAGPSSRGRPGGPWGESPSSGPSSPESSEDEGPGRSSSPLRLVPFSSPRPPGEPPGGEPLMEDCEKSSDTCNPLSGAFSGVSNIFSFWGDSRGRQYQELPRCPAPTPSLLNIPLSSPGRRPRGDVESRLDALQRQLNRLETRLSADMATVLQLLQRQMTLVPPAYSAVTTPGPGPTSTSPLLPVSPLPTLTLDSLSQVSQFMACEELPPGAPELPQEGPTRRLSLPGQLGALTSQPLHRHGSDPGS
row,Structure (SMILES),"hERG current change (%, negative = inhibition) at 1uM [%]"
1,O=S(=O)(NCc1ccco1)N1CCCCCC1,7.13
2,Cc1ccc(C)c(N2CCN(CCCNC(=O)CCC(=O)N3CCOc4ccc(Cl)cc43)CC2)c1,2.27
3,O=C(O)C(=O)O.O=S(=O)(c1ccc(F)cc1)N1CCC(N2CCCC2)CC1,3.58
4,O=C(COc1ccc2c3c(c(=O)oc2c1)CCC3)Nc1ccccn1,13.7
5,O=C(O)c1cc([N+](=O)[O-])ccc1NCCc1ccccc1,13.2
6,Cc1ccc(OCC(=O)N2CCCC(CO)(CCOc3ccccc3)C2)cc1 (centres unmarked),8.76
7,Cc1nn(CC(=O)NCC2CCCO2)c(C)c1[N+](=O)[O-] (centres unmarked),18.8
8,COc1ccccc1CNC(=O)CCN1C(=O)c2ccccc2C1=O,11.8
9,O=C1C=CCC(/C=C/c2ccccc2)O1 (centres unmarked),17.4
10,CCOC(=O)CCCCC(=O)c1[nH]c(=O)[nH]c1CSc1nnc2c3cc(Br)ccc3n(C)c2n1,10.1
11,Cc1ccc(C)c(C(C)NC(=O)C2C3CCC(O3)C2C(=O)O)c1 (centres unmarked),14.4
12,N#C/C(=C\c1ccc(-c2ccccc2[N+](=O)[O-])o1)C(=O)Nc1nc(-c2cccs2)cs1,4.92
13,c1ccc(-c2nc3c([nH]2)CCc2nonc2-3)cc1,19.7
14,CC(=O)c1cccc(NC(=O)C2C3C=CC(C3)C2C(=O)O)c1 (centres unmarked),-5.87
15,Cc1nn(Cc2ccccc2)c2c1C(c1cccnc1)C(C#N)=C(N)O2 (centres unmarked),-8.47
16,Cc1cccc(C)c1NC(=S)/C(=C(\[O-])c1cccs1)[n+]1ccccc1,2.6
17,O=C(OCC(=O)N1CCN(c2ccccc2)CC1)c1ccc(Cl)cc1[N+](=O)[O-],-5.98
18,O=C(O)c1ccc(-n2nnnc2SCc2ccccc2F)cc1,16.5
19,Cc1nn(CC(=O)NC2CCC(C)CC2)c(C)c1[N+](=O)[O-] (centres unmarked),1.38
20,O=C(C1CCC(CNc2c(N3CCCCC3)c(=O)c2=O)CC1)N1CCN(c2ccccn2)CC1 (centres unmarked),4.44
21,Cc1c(N=C/C=C/c2ccccc2)cnn1C,-4.78
22,Cc1cc(C(=O)OCC(=O)c2c(N)n(C)c(=O)n(C)c2=O)c(C)n1-c1ccccc1,5.19

row,Structure (SMILES),"hERG current change (%, negative = inhibition) at 1uM [%]"
1,COc1cc(OC)cc(C(=O)N/N=C/c2ccc(OC)c(COc3ccc(F)cc3)c2)c1,6.55
2,COc1ccc(OC)c(NS(=O)(=O)c2ccc(NC(C)=O)cc2)c1,10.5
3,CC(C)(O)C#CC#CCN1CCOCC1,2.47
4,COc1ccccc1C(=O)NC(CCSC)C(=O)NCC(c1cccs1)N1CCOCC1 (centres unmarked),-10.8
5,CCC(C)N=CC1=C(O)C(C(=O)OC)C(C)(C)CC1=O (centres unmarked),-1.88
6,O=C(Nc1nc(-c2cc(F)ccc2F)cs1)C1=NN(c2ccccc2)C(=O)CC1,8.56
7,CC1(C)NC(=O)N(CC(O)COc2ccccc2C(=O)Nc2ccccc2)C1=O (centres unmarked),-3.98
8,NC(=O)COc1ccccc1C(=O)O,14.6
9,CCc1nc2ccc(Br)cc2c(=O)n1-c1ccccc1C(F)(F)F,5.61
10,Cc1cc(C)n2nc(C(=O)Nc3ccc(S(=O)(=O)N(C)C)cc3)nc2n1,7.41
11,CC(C)C[C@@H](CN=[N+]=[N-])N1CCN(CC(C)C)CCC1=O,2.38
12,Cc1cccc(OCCC(=O)Nc2ccc(Cl)cc2F)c1,12.4
13,Cc1cc(C)n(-c2nnc(NC34CC5CC(CC(C5)C3)C4)nn2)n1,8.14
14,Cc1ccc2c(c1)C1CN(C)CCC1N2S(=O)(=O)c1cccc(C(F)(F)F)c1 (centres unmarked),-9.99
15,c1ccc(-c2noc(CN3CCN(c4cnccn4)CC3)n2)cc1,-11
16,COc1ccc(N2CCN(c3nc4c(c(=O)[nH]c(=O)n4C)n3Cc3cccc(C)c3)CC2)cc1,5.48
17,COc1ccc(CCNC(=O)CCc2ccc(S(=O)(=O)NC(C)C)cc2)cc1OC,7.74
18,Cc1cccc(OCc2nc(C#N)c(NCc3ccc4c(c3)OCO4)o2)c1,4.83
19,O=C(CCCCCN1C(=O)C2C3C=CC(C3)C2C1=O)Nc1nccs1 (centres unmarked),1.85
20,CCn1cc[n+](C)c1P(c1ccccc1)c1ccccc1.F[B-](F)(F)F,4.72
21,COc1cccc(/C=N/NC(=O)c2cnccn2)c1,6.99
22,O=C(CN1C(=O)NC2(CCc3ccccc32)C1=O)Nc1ccccc1OC(F)F (centres unmarked),17.5

# Reference: article PMC4336329 (PLoS ONE, 2015)
